From US20230265148A1 (HAINAN SIMCERE PHARMACEUTICAL, published 2023)

T1: human IL-2 receptor βγ dimer on CHO-K1 cells (CHO-K1 hIL-2R βγ 2E6) (human, UniProt P14784 27-551; P31785 23-369)
T1 construct: Full-length entries with signal peptides were cloned and expressed on CHO-K1 cells; also called CHO-K1 IL2R βγ
T1 sequence 1: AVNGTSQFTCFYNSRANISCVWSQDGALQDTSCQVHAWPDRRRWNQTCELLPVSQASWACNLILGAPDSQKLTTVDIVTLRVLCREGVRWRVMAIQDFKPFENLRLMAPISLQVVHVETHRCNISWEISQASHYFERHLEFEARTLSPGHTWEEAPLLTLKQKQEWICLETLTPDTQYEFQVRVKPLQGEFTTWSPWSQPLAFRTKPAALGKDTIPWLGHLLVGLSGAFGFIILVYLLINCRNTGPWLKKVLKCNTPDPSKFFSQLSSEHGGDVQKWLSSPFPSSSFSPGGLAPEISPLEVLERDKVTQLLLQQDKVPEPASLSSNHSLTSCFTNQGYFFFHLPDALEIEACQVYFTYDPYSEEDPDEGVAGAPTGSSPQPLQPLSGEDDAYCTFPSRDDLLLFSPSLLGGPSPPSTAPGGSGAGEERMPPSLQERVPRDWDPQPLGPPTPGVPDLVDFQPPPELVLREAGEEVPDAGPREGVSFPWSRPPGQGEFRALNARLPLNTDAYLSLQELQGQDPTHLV
T1 sequence 2: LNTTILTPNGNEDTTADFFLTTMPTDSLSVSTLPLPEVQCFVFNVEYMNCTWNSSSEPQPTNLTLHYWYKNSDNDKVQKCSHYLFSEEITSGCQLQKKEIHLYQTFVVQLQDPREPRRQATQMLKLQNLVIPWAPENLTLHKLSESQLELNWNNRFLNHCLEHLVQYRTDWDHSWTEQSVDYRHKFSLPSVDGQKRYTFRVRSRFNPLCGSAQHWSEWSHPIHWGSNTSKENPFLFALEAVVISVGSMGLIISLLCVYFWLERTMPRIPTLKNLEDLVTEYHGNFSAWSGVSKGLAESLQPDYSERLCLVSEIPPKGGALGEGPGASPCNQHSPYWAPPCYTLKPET

T2: human IL-2 receptor αβγ trimer on CHO-K1 cells (CHO-K1 hIL-2R αβγ 2D6) (human, UniProt P01589 22-272; P14784 27-551; P31785 23-369)
T2 construct: Full-length entries with signal peptides were cloned and expressed on CHO-K1 cells; also called CHO-K1 IL2R αβγ
T2 sequence 1: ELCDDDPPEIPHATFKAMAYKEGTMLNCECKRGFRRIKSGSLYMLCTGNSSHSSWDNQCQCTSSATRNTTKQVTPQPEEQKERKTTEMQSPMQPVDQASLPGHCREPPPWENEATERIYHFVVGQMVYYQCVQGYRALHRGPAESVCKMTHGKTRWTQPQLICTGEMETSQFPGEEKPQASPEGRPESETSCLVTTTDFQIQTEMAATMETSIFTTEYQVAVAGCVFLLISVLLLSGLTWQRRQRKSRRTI
T2 sequence 2: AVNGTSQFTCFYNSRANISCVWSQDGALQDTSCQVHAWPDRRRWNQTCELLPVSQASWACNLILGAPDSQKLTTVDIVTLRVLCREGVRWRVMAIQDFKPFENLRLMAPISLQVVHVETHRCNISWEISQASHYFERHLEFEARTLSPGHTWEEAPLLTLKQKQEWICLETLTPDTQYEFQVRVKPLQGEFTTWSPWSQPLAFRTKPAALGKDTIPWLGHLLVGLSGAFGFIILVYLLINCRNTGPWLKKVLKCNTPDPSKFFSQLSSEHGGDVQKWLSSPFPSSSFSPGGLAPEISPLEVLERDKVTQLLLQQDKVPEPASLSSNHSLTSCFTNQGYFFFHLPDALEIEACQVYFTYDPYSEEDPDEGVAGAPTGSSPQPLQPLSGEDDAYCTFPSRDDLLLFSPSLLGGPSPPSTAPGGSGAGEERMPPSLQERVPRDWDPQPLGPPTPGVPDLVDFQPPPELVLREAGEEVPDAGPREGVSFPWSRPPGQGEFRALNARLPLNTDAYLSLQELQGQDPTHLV
T2 sequence 3: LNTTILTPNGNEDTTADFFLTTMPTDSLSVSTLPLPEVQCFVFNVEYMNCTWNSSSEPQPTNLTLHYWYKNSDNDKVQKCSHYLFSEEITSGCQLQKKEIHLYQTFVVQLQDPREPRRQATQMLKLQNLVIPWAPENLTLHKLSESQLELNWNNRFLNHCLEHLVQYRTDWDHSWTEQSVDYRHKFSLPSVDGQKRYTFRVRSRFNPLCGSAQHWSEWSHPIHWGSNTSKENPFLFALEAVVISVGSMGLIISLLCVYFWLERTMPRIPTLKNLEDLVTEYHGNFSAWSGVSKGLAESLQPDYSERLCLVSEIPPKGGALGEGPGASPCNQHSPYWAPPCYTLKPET


Key:
[1] = biological target: T1, human IL-2 receptor βγ dimer on CHO-K1 …; test: FACS on CHO-K1 hIL-2R βγ 2E6 cells
Protocol: (§1) The medium was removed, followed by washing of the flask once with PBS buffer (purchased from Hyclone, Cat NO. SH30256.01). […] The cells were added into a U-shaped bottom 96-well FACS reaction plate at 70 μL per well and placed at 4° C. or on ice for later use. […] The plate was then washed twice with FACS buffer (PBS buffer containing 2% (w/w) bovine serum albumin). Fluorescence-labeled secondary antibody (purchased from Biolegend, Cat NO. 409306) was added into the plate at 100 μL per well and incubated on ice for 30 minutes. The plate was then washed twice with FACS buffer. Detection and analysis were performed by FACS (FACS Canto II, purchased from BD Company). Alternatively, the cells were suspended with 100 μL FACS buffer containing 2% (w/w) paraformaldehyde (purchased from DingGuo, Cat NO. AR-0211) and then stored at 4° C. until further FACS detection. 100 μL PBS buffer was added to each well before FACS detection. Detection and analysis was performed by FACS. The results are shown in FIG. 5A-FIG. 5D and Table 12-Table 13. […] The binding activity of IL-2 mutants to human IL-2 receptor βγ dimer on the cell surface was weaker than that of wild type IL-2. […] The MFI in the following tables is the average fluorescence intensity value of the detected cell populations.

[2] = biological target: T2, human IL-2 receptor αβγ trimer on …; test: FACS on CHO-K1 hIL-2R αβγ 2D6 cells
Protocol: as §1

Binder | MFI at 0.054 nM [1] | MFI at 0.161 nM [1] | MFI at 0.484 nM [1] | MFI at 1.452 nM [1] | MFI at 4.357 nM [1] | MFI at 13.072 nM [1] | MFI at 39.216 nM [1] | MFI at 117.65 nM [1] | MFI at 0.0003 nM [2] | MFI at 0.0015 nM [2] | MFI at 0.0075 nM [2] | MFI at 0.0376 nM [2] | MFI at 0.1882 nM [2] | MFI at 0.9412 nM [2] | MFI at 4.7059 nM [2] | MFI at 23.529 nM [2]
mut61-linker2-hFc (H16E/V91R) (Fc fusion, Whole fusion protein) APTSSSTKKTQLQLEELLLDLQMILNGINNYKNPKLTRMLTFKFYMPKKATELKHLQCLEEELKPLEEVLNLAQSKNFHLRPRDLISNINRIVLELKGSETTFMCEYADETATIVEFLNRWITFAQSIISTLTGGGGSGGGGSGGGGS[here human IgG1 Fc with changes without letters] | 142 MFI | 148 MFI | 146 MFI | 145 MFI | 142 MFI | 142 MFI | 155 MFI | 169 MFI | 194 MFI | 224 MFI | 544 MFI | 2310 MFI | 9190 MFI | 16400 MFI | 18300 MFI | 23900 MFI
mut7.36-linker2-hFc (H16E/R120F) (Fc fusion, Whole fusion protein) APTSSSTKKTQLQLEELLLDLQMILNGINNYKNPKLTRMLTFKFYMPKKATELKHLQCLEEELKPLEEVLNLAQSKNFHLRPRDLISNINVIVLELKGSETTFMCEYADETATIVEFLNFWITFAQSIISTLTGGGGSGGGGSGGGGS[here human IgG1 Fc with changes without letters] | 153 MFI | 156 MFI | 165 MFI | 210 MFI | 250 MFI | 318 MFI | 438 MFI | 615 MFI | 171 MFI | 272 MFI | 570 MFI | 2420 MFI | 9610 MFI | 18100 MFI | 19600 MFI | 23900 MFI
mut7.66-linker2-hFc (H16E/P82L/R120F) (Fc fusion, Whole fusion protein) APTSSSTKKTQLQLEELLLDLQMILNGINNYKNPKLTRMLTFKFYMPKKATELKHLQCLEEELKPLEEVLNLAQSKNFHLRLRDLISNINVIVLELKGSETTFMCEYADETATIVEFLNFWITFAQSIISTLTGGGGSGGGGSGGGGS[here human IgG1 Fc with changes without letters] | 118 MFI | 124 MFI | 136 MFI | 157 MFI | 216 MFI | 357 MFI | 597 MFI | 905 MFI | 177 MFI | 227 MFI | 568 MFI | 2480 MFI | 7680 MFI | 9660 MFI | 11600 MFI | 15500 MFI
mut61.46-linker2-hFc (H16E/V91R/L18I/I89L/V93I) (Fc fusion, Whole fusion protein) APTSSSTKKTQLQLEELILDLQMILNGINNYKNPKLTRMLTFKFYMPKKATELKHLQCLEEELKPLEEVLNLAQSKNFHLRPRDLISNLNRIILELKGSETTFMCEYADETATIVEFLNRWITFAQSIISTLTGGGGSGGGGSGGGGS[here human IgG1 Fc with changes without letters] | 134 MFI | 136 MFI | 133 MFI | 134 MFI | 131 MFI | 132 MFI | 159 MFI | 148 MFI | 186 MFI | 280 MFI | 521 MFI | 2380 MFI | 10100 MFI | 19400 MFI | 19700 MFI | 24200 MFI
mut11.08-linker2-hFc (V91R/Y31V/A73L/H79Q) (Fc fusion, Whole fusion protein) APTSSSTKKTQLQLEHLLLDLQMILNGINNVKNPKLTRMLTFKFYMPKKATELKHLQCLEEELKPLEEVLNLLQSKNFQLRPRDLISNINRIVLELKGSETTFMCEYADETATIVEFLNRWITFAQSIISTLTGGGGSGGGGSGGGGS[here human IgG1 Fc with changes without letters] | 144 MFI | 160 MFI | 178 MFI | 232 MFI | 342 MFI | 447 MFI | 645 MFI | 854 MFI | 251 MFI | 268 MFI | 621 MFI | 2740 MFI | 8710 MFI | 14900 MFI | 17400 MFI | 22200 MFI
mut11.31-linker2-hFc (V91R/Q13L) (Fc fusion, Whole fusion protein) APTSSSTKKTQLLLEHLLLDLQMILNGINNYKNPKLTRMLTFKFYMPKKATELKHLQCLEEELKPLEEVLNLAQSKNFHLRPRDLISNINRIVLELKGSETTFMCEYADETATIVEFLNRWITFAQSIISTLTGGGGSGGGGSGGGGS[here human IgG1 Fc with changes without letters] | 115 MFI | 121 MFI | 134 MFI | 180 MFI | 285 MFI | 560 MFI | 950 MFI | 1320 MFI | 172 MFI | 214 MFI | 553 MFI | 2180 MFI | 7520 MFI | 9500 MFI | 10900 MFI | 13400 MFI
